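Each compound was tested at five concentrations against cells in 96-well plates for 48 hours. Abbreviation: GI50, concentration required for 50% inhibition of growth. TGI is the concentration that stops growth completely.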
Test system: NCI-H322M lung
Test: growth of human tumour cells (NCI), 48 h

Compared with `N#Cc1c(NC(=O)c2ccc(C(F)(F)F)cc2)sc2c1CCC(O)=C2`, `O=C(Nc1ccc(OCc2ccccc2)cc1)Nc1ccc(Cl)c(C(F)(F)F)c1` is 3.4-fold lower in GI50: 6.49 µM for the first, 1.92 µM for the second.

Going from `CN1CCN(CCS(=O)(=O)Nc2cc(-c3ccc4ncnc(Nc5ccc(F)c(Cl)c5)c4c3)cnc2Cl)CC1` to `Cc1noc2c(Cc3ccccc3)nn(CC(=O)N/N=C/c3ccc(Br)cc3)c(=O)c12`, the GI50 rises from 1.57 µM to 17.8 µM (11-fold).

Compared with `N#Cc1c(NC(=O)c2ccc(C(F)(F)F)cc2)sc2c1CCC(O)=C2`, `O=C(Nc1ccc(OCc2ccccc2)cc1)Nc1ccc(Cl)c(C(F)(F)F)c1` is 1.7-fold lower in TGI: 32.5 µM for the first, 18.8 µM for the second.

Compared with `CN1CCN(CCS(=O)(=O)Nc2cc(-c3ccc4ncnc(Nc5ccc(F)c(Cl)c5)c4c3)cnc2Cl)CC1`, `Cc1noc2c(Cc3ccccc3)nn(CC(=O)N/N=C/c3ccc(Br)cc3)c(=O)c12` is higher in TGI: 5.38 µM for the first, over 100 µM for the second.

— PubChem BioAssay (NCI)
